# Assay results from the supplement of paper PMC8728848.
# This is one part of the list.
# B1: OGAA (protein)
# chain: MVQKESQATLEERESELSSNPAASAGASLEPPAAPAPGEDNPAGAGGAAVAGAAGGARRFLCGVVEGFYGRPWVMEQRKELFRRLQKWELNTYLYAPKDDYKHRMFWREMYSVEEAEQLMTLISAAREYEIEFIYAISPGLDITFSNPKEVSTLKRKLDQVSQFGCRSFALLFADIDHNMCAADKEVFSSFAHAQVSITNEIYQYLGEPETFLFCPTEYCGTFCYPNVSQSPYLRTVGEKLLPGIEVLWTGPKVVSKEIPVESIEEVSKIIKRAPVIWDNIHANDYDQKRLFLGPYKGRSTELIPRLKGVLTNPNCEFEANYVAIHTLATWYKSNMNGVRKDVVMTDSEDSTVSIQIKLENEGSDEDIETDVLYSPQMALKLALTEWLQEFGVPHQY
# Columns and labels:
# Test in all cases: glycan array binding signal (z-score within array); higher = stronger binding
# Conditions in all cases: glycan notation: IUPAC condensed, linker removed
# Gal3S(b1-4)Glc = molecular target: Gal3S(b1-4)Glc
# Procedure, shortened: (§1)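 Columns mapping to the same glycan were averaged after glycan names were converted to IUPAC-condensed notation. The data come from 3228 arrays in the Consortium for Functional Glycomics database, limited to those with an available protein sequence. Binding is reported as a within-array Z-score averaged across arrays of one protein sequence and across linkers.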
# Gal3S(b1-4)Glc6S = molecular target: Gal3S(b1-4)Glc6S
# Procedure, shortened: as §1
# Gal3S(b1-4)GlcNAc = molecular target: Gal3S(b1-4)GlcNAc
# Procedure, shortened: as §1
# [1] = molecular target: Gal3S(b1-4)[Fuc(a1-3)]Glc6S
# Procedure, shortened: as §1
# [2] = molecular target: Gal3S(b1-4)[Fuc(a1-3)]GlcNAc
# Procedure, shortened: as §1
# [3] = molecular target: Gal3S(b1-4)[Fuc(a1-3)]GlcNAc6S
# Procedure, shortened: as §1
# Gal3S4S(b1-4)GlcNAc = molecular target: Gal3S4S(b1-4)GlcNAc
# Procedure, shortened: as §1
# Gal3S6S(b1-4)GlcNAc = molecular target: Gal3S6S(b1-4)GlcNAc
# Procedure, shortened: as §1
# Gal3S6S(b1-4)GlcNAc6S = molecular target: Gal3S6S(b1-4)GlcNAc6S
# Procedure, shortened: as §1
# Gal4S(b1-4)GlcNAc = molecular target: Gal4S(b1-4)GlcNAc
# Procedure, shortened: as §1
# Gal4S6S(b1-4)GlcNAc = molecular target: Gal4S6S(b1-4)GlcNAc
# Procedure, shortened: as §1
# Gal6P(b1-4)GlcNAc = molecular target: Gal6P(b1-4)GlcNAc
# Procedure, shortened: as §1
# Gal6S(b1-3)GlcNAc = molecular target: Gal6S(b1-3)GlcNAc
# Procedure, shortened: as §1
# Gal6S(b1-3)GlcNAc6S = molecular target: Gal6S(b1-3)GlcNAc6S
# Procedure, shortened: as §1
# Gal6S(b1-4)Glc = molecular target: Gal6S(b1-4)Glc
# Procedure, shortened: as §1
# Gal6S(b1-4)Glc6S = molecular target: Gal6S(b1-4)Glc6S
# Procedure, shortened: as §1
# Gal6S(b1-4)GlcNAc = molecular target: Gal6S(b1-4)GlcNAc
# Procedure, shortened: as §1
# Gal6S(b1-4)GlcNAc6S = molecular target: Gal6S(b1-4)GlcNAc6S
# Procedure, shortened: as §1
# GalNAc(a1-3)Gal = molecular target: GalNAc(a1-3)Gal
# Procedure, shortened: as §1
# GalNAc(a1-3)GalNAc = molecular target: GalNAc(a1-3)GalNAc
# Procedure, shortened: as §1
# [4] = molecular target: GalNAc(a1-3)GalNAc(b1-3)Gal(a1-4)Gal(b1-4)Glc
# Procedure, shortened: as §1
# [5] = molecular target: GalNAc(a1-3)GalNAc(b1-3)Gal(a1-4)Gal(b1-4)GlcNAc
# Procedure, shortened: as §1
# GalNAc(b1-3)Gal = molecular target: GalNAc(b1-3)Gal
# Procedure, shortened: as §1
# [6] = molecular target: GalNAc(b1-3)Gal(a1-4)Gal(b1-4)GlcNAc
# Procedure, shortened: as §1
# [7] = molecular target: GalNAc(b1-3)Gal(a1-4)Gal(b1-4)GlcNAc(b1-3)Gal(b1-4)Glc
# Procedure, shortened: as §1
# [8] = molecular target: GalNAc(b1-3)Gal(a1-6)Gal(b1-4)Glc
# Procedure, shortened: as §1
# GalNAc(b1-3)GalNAc = molecular target: GalNAc(b1-3)GalNAc
# Procedure, shortened: as §1
# GalNAc(b1-3)GlcNAc = molecular target: GalNAc(b1-3)GlcNAc
# Procedure, shortened: as §1
# GalNAc(b1-4)Gal(b1-4)Glc = molecular target: GalNAc(b1-4)Gal(b1-4)Glc
# Procedure, shortened: as §1
# GalNAc(b1-4)GlcNAc = molecular target: GalNAc(b1-4)GlcNAc
# Procedure, shortened: as §1
# [9] = molecular target: GalNAc(b1-4)GlcNAc(b1-2)Man
# Procedure, shortened: as §1
# [10] = molecular target: GalNAc(b1-4)GlcNAc(b1-2)Man(a1-3)[GalNAc(b1-4)GlcNAc(b1-2)Man(a1-6)]Man(b1-4)GlcNAc(b1-4)GlcNAc
# Procedure, shortened: as §1
# [11] = molecular target: GalNAc(b1-4)GlcNAc(b1-3)GalNAc(b1-4)GlcNAc
# Procedure, shortened: as §1
# GalNAc(b1-4)GlcNAc6S = molecular target: GalNAc(b1-4)GlcNAc6S
# Procedure, shortened: as §1
# GalNAc(b1-6)GalNAc = molecular target: GalNAc(b1-6)GalNAc
# Procedure, shortened: as §1
# GalNAc3S(b1-4)GlcNAc = molecular target: GalNAc3S(b1-4)GlcNAc
# Procedure, shortened: as §1
# GalNAc3S(b1-4)GlcNAc3S = molecular target: GalNAc3S(b1-4)GlcNAc3S
# Procedure, shortened: as §1
binder,measurement,setting,value
B1,glycan array binding signal (z-score),Gal3S(b1-4)Glc,-0.067
same,glycan array binding signal (z-score),Gal3S(b1-4)Glc6S,-0.088
same,glycan array binding signal (z-score),Gal3S(b1-4)GlcNAc,-0.094
same,glycan array binding signal (z-score),[1],-0.026
same,glycan array binding signal (z-score),[2],-0.033
same,glycan array binding signal (z-score),[3],-0.016
same,glycan array binding signal (z-score),Gal3S4S(b1-4)GlcNAc,-0.054
same,glycan array binding signal (z-score),Gal3S6S(b1-4)GlcNAc,-0.025
same,glycan array binding signal (z-score),Gal3S6S(b1-4)GlcNAc6S,-0.045
same,glycan array binding signal (z-score),Gal4S(b1-4)GlcNAc,-0.043
same,glycan array binding signal (z-score),Gal4S6S(b1-4)GlcNAc,-0.054
same,glycan array binding signal (z-score),Gal6P(b1-4)GlcNAc,-0.072
same,glycan array binding signal (z-score),Gal6S(b1-3)GlcNAc,-0.043
same,glycan array binding signal (z-score),Gal6S(b1-3)GlcNAc6S,-0.051
same,glycan array binding signal (z-score),Gal6S(b1-4)Glc,0.023
same,glycan array binding signal (z-score),Gal6S(b1-4)Glc6S,-0.034
same,glycan array binding signal (z-score),Gal6S(b1-4)GlcNAc,0.096
same,glycan array binding signal (z-score),Gal6S(b1-4)GlcNAc6S,-0.024
same,glycan array binding signal (z-score),GalNAc(a1-3)Gal,-0.087
same,glycan array binding signal (z-score),GalNAc(a1-3)GalNAc,-0.119
same,glycan array binding signal (z-score),[4],-0.089
same,glycan array binding signal (z-score),[5],-0.071
same,glycan array binding signal (z-score),GalNAc(b1-3)Gal,-0.039
same,glycan array binding signal (z-score),[6],-0.056
same,glycan array binding signal (z-score),[7],-0.076
same,glycan array binding signal (z-score),[8],-0.032
same,glycan array binding signal (z-score),GalNAc(b1-3)GalNAc,-0.106
same,glycan array binding signal (z-score),GalNAc(b1-3)GlcNAc,-0.083
same,glycan array binding signal (z-score),GalNAc(b1-4)Gal(b1-4)Glc,-0.096
same,glycan array binding signal (z-score),GalNAc(b1-4)GlcNAc,-0.072
same,glycan array binding signal (z-score),[9],-0.121
same,glycan array binding signal (z-score),[10],-0.075
same,glycan array binding signal (z-score),[11],-0.095
same,glycan array binding signal (z-score),GalNAc(b1-4)GlcNAc6S,-0.11
same,glycan array binding signal (z-score),GalNAc(b1-6)GalNAc,-0.063
same,glycan array binding signal (z-score),GalNAc3S(b1-4)GlcNAc,-0.005
same,glycan array binding signal (z-score),GalNAc3S(b1-4)GlcNAc3S,-0.109
